Source: the supplement of paper PMC4967469

Assays:
Test in all cases: Viability of human cancer cell lines after 72 h of drug (GDSC screen)
Docetaxel = compound: CC(=O)O[C@@]12CO[C@@H]1C[C@H](O)[C@@]1(C)C(=O)[C@H](O)C3=C(C)[C@@H](OC(=O)[C@H](O)[C@@H](NC(=O)OC(C)(C)C)c4ccccc4)C[C@@](O)([C@@H](OC(=O)c4ccccc4)[C@H]21)C3(C)C [Docetaxel]; conditions: top dose 0.0125 µM
Description: (§1)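 Human cancer cell lines in 384-well plates, medium with 10% serum, drug for 72 h over a 256-fold dose range (nine 2-fold or five 4-fold steps up to the top dose). Adherent lines were fixed and stained with the nucleic acid dye Syto60, suspension lines read with resazurin; signal relative to control wells, capped at 0 and 100%. One two-parameter sigmoid per drug and line, fitted in a mixed model over all curves with the slope shared within a line.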

AMG-706 = compound: CC1(C)CNc2cc(NC(=O)c3cccnc3NCc3ccncc3)ccc21 [AMG-706]; conditions: top dose 2 µM; top dose inferred
Description: as §1

JNK Inhibitor VIII = compound: CCOc1nc(NC(=O)Cc2cc(OC)ccc2OC)cc(N)c1C#N [JNK Inhibitor VIII]; conditions: top dose 10 µM; top dose inferred
Description: as §1

NSC-207895 = compound: CN1CCN(c2ccc([N+](=O)[O-])c3no[n+]([O-])c23)CC1 [NSC-207895]; conditions: top dose 20 µM; top dose inferred
Description: as §1

FTI-277 = compound: COC(=O)[C@H](CCSC)NC(=O)c1ccc(NC[C@@H](N)CS)cc1-c1ccccc1 [FTI-277]; conditions: top dose 1.024 µM; top dose inferred
Description: as §1

YM155 = compound: COCC[n+]1c2c(n(Cc3cnccn3)c1C)C(=O)c1ccccc1C2=O [YM155]; conditions: top dose 5.12 µM
Description: as §1

OSI-906 = compound: C[C@]1(O)C[C@@H](c2nc(-c3ccc4ccc(-c5ccccc5)nc4c3)c3c(N)nccn32)C1 [OSI-906]; conditions: top dose 2.56 µM; top dose inferred
Description: as §1

SB-715992 = compound: Cc1ccc(C(=O)N(CCCN)[C@@H](c2nc3cc(Cl)ccc3c(=O)n2Cc2ccccc2)C(C)C)cc1 [SB-715992]; conditions: top dose 0.128 µM; top dose inferred
Description: as §1

JQ1 = compound: Cc1sc2c(c1C)C(c1ccc(Cl)cc1)=N[C@@H](CC(=O)OC(C)(C)C)c1nnc(C)n1-2 [JQ1]
Description: as §1

Belinostat = compound: O=C(/C=C/c1cccc(S(=O)(=O)Nc2ccccc2)c1)NO [Belinostat]; conditions: top dose 20 µM; top dose inferred
Description: as §1

JNJ-26854165 = compound: c1ccc2c(CCNc3ccc(Nc4ccncc4)cc3)c[nH]c2c1 [JNJ-26854165]; conditions: top dose 10 µM
Description: as §1

[1] = top dose 1 µM, screen: GDSC drug entry 1218, top dose inferred
[2] = top dose 2.56 µM, screen: GDSC drug entry 163

Row | Cell Line | AUC (Docetaxel) | IC50 (Docetaxel) | AUC (AMG-706) | IC50 (AMG-706) | AUC (JNK Inhibitor VIII) | IC50 (JNK Inhibitor VIII) | AUC (NSC-207895) | IC50 (NSC-207895) | AUC (FTI-277) | IC50 (FTI-277) | AUC (YM155) | IC50 (YM155) | AUC (OSI-906) | IC50 (OSI-906) | AUC (SB-715992) | IC50 (SB-715992) | AUC (JQ1; [1]) | IC50 (JQ1; [1]) | AUC (JQ1; [2]) | IC50 (JQ1; [2]) | AUC (Belinostat) | IC50 (Belinostat) | AUC (JNJ-26854165) | IC50 (JNJ-26854165)
1 | FTC-133 (thyroid, adherent) | 0.439 | 0.522 nM | 0.954 | > 2000 nM | 0.964 | > 10000 nM | 0.88 | > 20000 nM | 0.843 | 836 nM | 0.04 | < 20 nM | 0.955 | > 2560 nM | 0.983 | > 128 nM | 0.973 | > 1000 nM | 0.908 | > 2560 nM | 0.667 | 3840 nM | 0.821 | 6530 nM
2 | G-361 (melanoma, adherent) | 0.809 | 6.21 nM | 0.984 | > 2000 nM | 0.988 | > 10000 nM | 0.874 | 18100 nM | 0.988 | > 1020 nM | 0.085 | < 20 nM | 0.967 | > 2560 nM | 0.869 | 110 nM | 0.987 | > 1000 nM | 0.504 | 164 nM | 0.32 | 401 nM | 0.847 | 6890 nM
3 | G-401 (kidney, adherent) | 0.601 | 1.53 nM | 0.98 | > 2000 nM | 0.982 | > 10000 nM | 0.539 | 1610 nM | 0.938 | > 1020 nM | 0.03 | < 20 nM | 0.526 | 189 nM | 0.803 | 71.2 nM | 0.977 | > 1000 nM | 0.872 | > 2560 nM | 0.46 | 960 nM | 0.857 | 9420 nM
4 | G-402 (soft tissue, adherent) | 0.527 | 0.945 nM | 0.793 | 1270 nM | 0.978 | > 10000 nM | 0.916 | > 20000 nM | 0.937 | > 1020 nM | 0.141 | < 20 nM | 0.958 | > 2560 nM | 0.976 | > 128 nM | 0.935 | > 1000 nM | 0.527 | 194 nM | 0.775 | 10700 nM | 0.801 | 6890 nM
5 | GMS-10 (glioma, adherent) | 0.574 | 1.25 nM | 0.985 | > 2000 nM | 0.982 | > 10000 nM | 0.988 | > 20000 nM | 0.976 | > 1020 nM | 0.233 | 54.3 nM | 0.972 | > 2560 nM | 0.987 | > 128 nM | 0.982 | > 1000 nM | 0.96 | > 2560 nM | 0.787 | 8600 nM | 0.908 | > 10000 nM
6 | H513 (mesothelioma, semi-adherent) | 0.895 | > 12.5 nM | 0.986 | > 2000 nM | 0.982 | > 10000 nM | 0.985 | > 20000 nM | 0.95 | > 1020 nM | 0.851 | > 5120 nM | 0.983 | > 2560 nM | 0.976 | > 128 nM | 0.973 | > 1000 nM | 0.964 | > 2560 nM | 0.956 | > 20000 nM | 0.971 | > 10000 nM
7 | H2369 (mesothelioma, adherent) | 0.679 | 2.52 nM | 0.935 | > 2000 nM | 0.946 | > 10000 nM | 0.981 | > 20000 nM | 0.658 | 178 nM | 0.154 | 26.1 nM | 0.953 | > 2560 nM | 0.909 | > 128 nM | 0.985 | > 1000 nM | 0.771 | 1020 nM | 0.607 | 2480 nM | 0.862 | 9040 nM
8 | H2373 (mesothelioma, adherent) | 0.782 | 6.7 nM | 0.905 | > 2000 nM | 0.967 | > 10000 nM | 0.916 | > 20000 nM | 0.963 | > 1020 nM | 0.039 | < 20 nM | 0.827 | 2120 nM | 0.983 | > 128 nM | 0.975 | > 1000 nM | 0.874 | > 2560 nM | 0.477 | 1070 nM | 0.911 | > 10000 nM
9 | H2461 (mesothelioma, adherent) | 0.893 | > 12.5 nM | 0.981 | > 2000 nM | 0.981 | > 10000 nM | 0.969 | > 20000 nM | 0.979 | > 1020 nM | 0.464 | 248 nM | 0.943 | > 2560 nM | 0.982 | > 128 nM | 0.978 | > 1000 nM | 0.808 | 1740 nM | 0.64 | 3370 nM | 0.954 | > 10000 nM
10 | H2595 (mesothelioma, adherent) | 0.769 | 6.64 nM | 0.917 | > 2000 nM | 0.912 | > 10000 nM | 0.804 | 15100 nM | 0.968 | > 1020 nM | 0.048 | < 20 nM | 0.956 | > 2560 nM | 0.826 | 123 nM | 0.963 | > 1000 nM | 0.761 | 1260 nM | 0.457 | 912 nM | 0.914 | > 10000 nM
11 | H2731 (mesothelioma, adherent) | 0.801 | 7.13 nM | 0.917 | > 2000 nM | 0.94 | > 10000 nM | 0.85 | 18700 nM | 0.971 | > 1020 nM | 0.382 | 144 nM | 0.873 | > 2560 nM | 0.972 | > 128 nM | 0.981 | > 1000 nM | 0.68 | 553 nM | 0.088 | < 78.1 nM | 0.868 | > 10000 nM

A lower IC50 marks a more sensitive line; a fit beyond the top or the lowest dose is shown as a bound at that dose. AUC, from the same fit, is the share of area under the viability curve across the 256-fold dose range: 1 means no effect, lower means more sensitive. For part of these data: Where the top dose is marked as inferred, it is not printed in the source and was worked back from the curve model. For part of these data: Where an entry number is given, a second screen of the drug exists; the two often differ.
